Reference: the supplement of paper PMC3334620
In all, about 33,000 sequences were measured (“E-score (-0.5 to 0.5)”: median about -0.035, highest 2% from about 0.35 on). This is one part of the list.

Target: T1, Pdr3 (UniProt P33200)
T1 sequence: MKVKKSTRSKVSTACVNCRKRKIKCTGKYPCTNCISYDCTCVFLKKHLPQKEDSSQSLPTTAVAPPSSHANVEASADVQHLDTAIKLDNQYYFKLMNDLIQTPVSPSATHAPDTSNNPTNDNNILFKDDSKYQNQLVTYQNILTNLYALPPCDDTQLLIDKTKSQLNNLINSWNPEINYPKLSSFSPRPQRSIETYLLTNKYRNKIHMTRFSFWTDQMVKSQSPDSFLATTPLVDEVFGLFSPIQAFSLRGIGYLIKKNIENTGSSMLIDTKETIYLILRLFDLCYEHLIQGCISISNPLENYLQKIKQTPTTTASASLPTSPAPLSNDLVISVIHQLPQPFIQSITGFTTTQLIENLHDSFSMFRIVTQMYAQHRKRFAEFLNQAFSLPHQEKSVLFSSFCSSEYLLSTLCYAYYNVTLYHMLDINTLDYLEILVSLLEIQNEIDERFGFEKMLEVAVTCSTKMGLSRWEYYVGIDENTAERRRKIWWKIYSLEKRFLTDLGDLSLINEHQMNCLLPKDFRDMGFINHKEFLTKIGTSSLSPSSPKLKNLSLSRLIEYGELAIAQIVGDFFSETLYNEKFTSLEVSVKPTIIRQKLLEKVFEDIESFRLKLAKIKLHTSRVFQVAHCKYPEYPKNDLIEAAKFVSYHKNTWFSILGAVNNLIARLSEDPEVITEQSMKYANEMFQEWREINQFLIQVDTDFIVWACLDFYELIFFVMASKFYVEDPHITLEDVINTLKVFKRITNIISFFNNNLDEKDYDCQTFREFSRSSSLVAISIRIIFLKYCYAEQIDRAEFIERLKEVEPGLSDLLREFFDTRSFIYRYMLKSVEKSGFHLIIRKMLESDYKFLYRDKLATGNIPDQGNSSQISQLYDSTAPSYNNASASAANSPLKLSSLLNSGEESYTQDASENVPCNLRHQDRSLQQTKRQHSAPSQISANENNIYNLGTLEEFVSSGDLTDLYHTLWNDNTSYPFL
Assay: PBM E-score (8-mer binding enrichment) (E-score (-0.5 to 0.5)); higher = stronger / more preferred TF binding; most listed sequences are background and not binding sites
Conditions: protein concentration: 200 nM; construct: GST-full length
Procedure, shortened: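 Masliner-normalised scans of fluorescent anti-GST signal were the basis for scoring. That signal came from GST-tagged yeast transcription factors applied at about 100-200 nM to double-stranded universal all-10-mer Agilent arrays on fresh or once-stripped slides. Each ungapped eight-base word, pooled with its reverse complement, received an E-score from the Universal PBM Analysis Suite.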

Sequence | PBM E-score
CCCATAAC | -0.0757
AGTTTATA | 0.183
ATCAGTAG | -0.0545
ATCCGACC | 0.193
ACTGCGCA | 0.0867
AATTACTG | 0.0363
ACCCCATC | -0.0325
CATGGACC | 0.00539
ACAGTTGA | -0.0688
AGGTAAAG | 0.025
ACAAGCCC | -0.157
CCGGACCA | 0.337
ACTTGCGA | -0.00162
AAGTATAT | 0.098
ATGGCGTC | 0.0108
AGCTTCCG | 0.416
CCATGTCG | 0.00323
CGAATTAA | -0.0119
AAACGTGC | -0.137
AACAGCCT | -0.133
ATCCTGAC | -0.106
GCCACCGA | -0.0867
AGACCGAC | 0.0765
AGCACTGA | -0.061
ACGTTATC | -0.0723

Sequence | PBM E-score
CGCTAACA | -0.0873
TCTTGCAA | 0.148
ATATTTTA | 0.0395
CGAGTATA | 0.0546
ACATATGC | -0.316
CCCAGGGA | -0.168
CGAAATCC | 0.207
TGGAGTAA | -0.0368
ATCGATTG | 0.0872
AACGCCAG | 0.151
GCAAGGGC | -0.123
CCGGCACC | 0.369
CTTATGCC | -0.0276
CACGCGCG | 0.0707
TTGCCAAA | -0.0395
AACCCTGA | 0.103
TACAAACA | -0.0403
CATGCCTA | -0.0556
CCCTCGCC | -0.107
GAACATGA | 0.0104
CCGCTTAC | -0.109
CGAAATTA | 0.091
CATCCCGG | 0.431
ACCTGTAG | -0.102
GTGGCAGA | -0.102

Sequence | PBM E-score
ATGTGCCG | 0.0682
ACAAGAAG | 0.0846
ATAAGAGG | 0.0703
CAAGTGCG | 0.064
CGCAGAAG | -0.09
ATACCGGA | 0.303
AGGCCGGG | 0.141
AGATCTCC | 0.0532
GGGTCGAA | -0.0311
TCGCGCGA | 0.268
AGAACTAG | -0.221
ATTGATCC | 0.322
TAACGTTA | 0.105
CGAATACC | 0.0404
AGATCCAA | 0.00027
AAACTCAC | -0.0294
ACGACTGC | -0.264
GAGCCACA | -0.139
CGCCAAAG | -0.0275
ATAGATTG | 0.0442
CTGTGCTA | -0.0248
CTATCGCA | -0.17
GCCTTGTA | -0.119
ATGTGACA | -0.141
CGTAGGTA | 0.0651

Sequence | PBM E-score
CCCAATCA | -0.0364
GCGTCAAA | -0.0421
CGGTTACC | 0.101
ACACGCGT | 0.0498
AGTTGCTC | -0.0876
GCAACGCC | 0.0137
ATATTAAG | 0.0281
AAAACTTT | -0.074
AACGGCCA | 0.172
CACTGGTC | -0.078
AAATGACC | -0.0715
GGCCTAAA | -0.149
ACAGACAG | -0.0138
ACCAGTGG | -0.00822
ACTGTCGA | -0.129
GACGTCGA | 0.115
ATCCTTTC | -0.132
GGCGGGGA | 0.292
CCGATCTA | 0.0827
ACAGTGGT | -0.156
CGAAACGC | -0.176
AGTAGCGG | 0.134
GAATGCCA | 0.0772
AGGTATAG | -0.0746
CACGACCA | -0.131

Sequence | PBM E-score
CTACCTGC | 0.0949
ATCCGAGA | 0.312
AGCTGGGA | -0.0146
CACAGCCA | -0.0191
AGGCCGTC | 0.0206
GAGTACCC | -0.00434
CGCCCAGC | 0.172
GCGTAGGA | -0.0309
CTGAACAC | 0.0409
AGCCATCC | 0.133
ATGGGGTC | 0.0921
TGAGGTAA | -0.165
CGTAAACC | -0.16
CGTCAAGA | -0.0703
TAGACCTA | -0.273
CTTCTTTC | -0.0696
GCGCGAGA | 0.0398
GCTTAAGC | -0.0198
CTCGGATA | 0.273
GATACACC | 0.154
AGGCCGGA | 0.256
ACGAACGT | 0.00537
CATAGACG | 0.0236
GAAGTCTC | -0.128
CGGAAACA | 0.451

Sequence | PBM E-score
CGAGGGCC | 0.0701
AAAGGAGG | -0.134
CAATAATC | 0.114
ATGATCAT | -0.0826
CCCATTTA | -0.053
CACAAGCC | 0.0747
CGACGATC | 0.198
AACAGTGT | -0.213
CGCGACAA | 0.234
AGCCACAT | -0.236
TAATATTA | 0.293
CCTCTCGC | -0.145
ATCGCAAT | 0.00216
CCACATAA | 0.0311
CGGCGCAA | 0.185
ACGTCACT | -0.011
CTCACTTC | -0.105
GATTTGGC | 0.0223
AGCATAGA | -0.12
ATGCCCGA | -0.0424
AGAGACGC | 0.114
CGGTTGAA | 0.172
GTACAGGA | -0.0884
ACGCCGTG | 0.113
ACTGTAAT | -0.142

Sequence | PBM E-score
ATTCTCAC | 0.0366
CTAGAGCA | -0.165
ATCTACTC | 0.121
GCTATGCA | -0.277
ATCGGAGG | 0.0523
ACATGCGG | 0.156
AGTGGAGG | -0.0928
TAGAATGA | -0.19
ACCAGTCC | -0.0869
ACTTTTTG | -0.0594
GTACTACA | -0.109
ATCCCGAG | 0.395
ATTAGGCC | -0.0713
GAGGAATA | 0.0358
CATGTTAA | -0.0262
GCCGCGAC | 0.0926
AATCATCG | -0.05
GGGCGACA | 0.102
CGGTCCAC | -0.0157
AAGAGCCG | 0.199
GGGCACGA | -0.0993
GCCCCGGC | 0.163
